Experimental data as given in patent US11779630B2, “Peptides and methods of using the same” (SERPIN PHARMA, LLC, priority 2020, dated 2023).

Tested on: IMG microglial cells
Assay: LPS induced cytokines in IMG microglial cells, multiplex assay
Conditions: peptide 100 μg/ml, 24 hours, LPS 100 ng/ml

V K F N K P F V F L M I E Q N T K (VKFNKPFVFLMIEQNTK; listed as Homo sapiens) [SP16]
LPS mediated cytokines (largely TNF-alpha) in supernatant: reduced LPS mediated cytokines (largely TNF-alpha, p<0.02)
